In PubChem BioAssay AID624418 (National Center for Advancing Translational Sciences (NCATS), 2012):
About 530 (0.13%) of roughly 410,000 compounds were called active. The shares of active, inactive and inconclusive entries below differ from those in the screen. Calls follow the shape of the dose curve; as a rule, active = well fitted inhibition curve with a large enough effect; inconclusive = small, poorly fitted or top-dose-only effect, or another doubt; inactive = no such curve, though single readings can be large or run the other way. Potencies beside an inconclusive call are fits to weak or partial responses and may not hold up.

Test: qHTS of GLP-1 Receptor Inverse Agonists: Cytotox Screen
Details: HEK293 cAMP-luciferase reporter cells, luminescence, 24 h; activity change, negative = inhibition: at 38.3 µM (top of the series) unless noted
Summary of the method: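 Cells in DMEM/10% Nu serum/1% pen-strep, 1536-well format. Pre-incubated 12 h, dosed with 23 nL compound, incubated a further 24 h. Luciferase detection, 12 min at room temp, luminescence.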
% is scaled to controls: 0 for no effect and ±100 for the full control effect; potency is read from the fitted curve at half-maximal effect.

Row | Compound | Potency | activity change, negative = inhibition
1 | Cc1ccc(C(=O)NC(=S)Nc2ccccc2C(F)(F)F)cc1C | inconclusive: 28.2 µM [inhibitor, single point] | –
2 | Cc1ccc(/C=N/NC(=S)NC2CCCCC2)o1 | inconclusive: 2.51 µM [inhibitor, full curve, poor fit] | –
3 | O=C1c2ccccc2C(=O)N1/N=C/c1ccc(O)c(O)c1 | inactive | –
4 | CCCN(CC(=O)Nc1ccccc1C)C(=O)c1ccc2ccccc2n1 | inactive | –
5 | Cc1ccc(S(=O)(=O)Nc2cccc(-c3cn4ccsc4n3)c2)cc1 | inconclusive: 11.2 µM [inhibitor, partial curve, poor fit] | –
6 | CN1C(=O)c2ccccc2Sc2ccc(NC(=O)COc3ccc(Cl)cc3)cc21 | inactive | –
7 | Cc1ccc(C2C(/C=C3/SC(=S)NC3=O)=C(c3cccs3)Oc3ccccc32)cc1 (stereo not drawn) | inconclusive: 11.2 µM [inhibitor, single point] | –
8 | Oc1ccc2ccccc2c1CNc1ccc2ccccc2c1 | inconclusive: 5.01 µM [inhibitor, partial curve, poor fit] | –
9 | CC(=O)N1[C@H](C)C=C[C@]1(Cc1ccccc1)C(=O)O | inactive | –
10 | Cc1ccccc1CS(=O)(=O)c1nnc([C@H](Cc2ccccc2)NC(=O)OC(C)(C)C)o1 | inconclusive: 10 µM [inhibitor, partial curve, poor fit] | –
11 | Cc1ccc2c(c1C)-c1c(ccc(C)c1C)C(=O)C2=O | inconclusive: 3.55 µM [inhibitor, partial curve, poor fit] | –
12 | CC1(C)CC(Cc2ccccc2C(F)(F)F)N(C(=O)OC(C)(C)C)C1 (stereo not drawn) | inactive | –
13 | CCOC(=O)c1cc(-c2ccc(OC)cc2)nc2c1c(C)nn2CCC(N)=S | inconclusive: 28.2 µM [inhibitor, single point] | –
14 | Brc1cccc(-c2nnn3c2nc(NCc2ccc4c(c2)OCO4)c2ccccc23)c1 | inactive | –
15 | O=[N+]([O-])c1ccc(N=NN(CCO)CCO)cc1 | inconclusive: 14.1 µM [inhibitor, single point] | –
16 | O=C(O)CCCC(=O)Nc1cc([N+](=O)[O-])ccc1O | inconclusive: 11.2 µM [inhibitor, partial curve, poor fit] | –
17 | c1ccc(OCCOCCN2CCN(C(c3ccccc3)c3ccccc3)CC2)cc1 | inconclusive: 22.4 µM [inhibitor, single point] | –
18 | S=C(NCC1CCCO1)N1CCN(c2ccccc2)CC1 (stereo not drawn) | – | inactive: 1.72% [at 7.66 µM]
19 | O=C(COC(=O)c1ccc(Cl)c(S(=O)(=O)N2CCCCCC2)c1)NCc1ccccc1 | inconclusive: 7.94 µM [inhibitor, partial curve, poor fit] | –
20 | Cn1nc(C(=O)Nc2cccc(Cl)c2)cc1C(=O)Nc1cccc(Cl)c1 | inconclusive: 11.2 µM [inhibitor, single point] | –
21 | CC(=O)N(C1=C(N2CCOCC2)C(=O)c2ccccc2C1=O)c1ccc(C(=O)O)cc1 | inconclusive: 10 µM [inhibitor, partial curve, poor fit] | –
22 | O=C(c1cccc(S(=O)(=O)NCc2ccccc2)c1)N1CCN(c2cccc(C(F)(F)F)c2)CC1 | inconclusive: 12.6 µM [inhibitor, single point] | –

Row | Compound | Potency | activity change, negative = inhibition
23 | CC(C)(C)c1ccc(/C=C/C(=O)Nc2ccc(S(N)(=O)=O)cc2)cc1 | inconclusive: 28.2 µM [inhibitor, single point] | –
24 | COc1ccccc1CNc1nc(Nc2cccc(-c3cnco3)c2)c2sccc2n1 | inconclusive: 10 µM [inhibitor, single point] | –
25 | COc1cccc(CN2CCN(C(=O)c3cccc4ccccc34)CC2)c1OC | inactive | –
26 | Cc1cc(C)c(NC(=O)CSc2ncc3c(n2)-c2cc(Cl)ccc2N(C)S3(=O)=O)c(C)c1 | inactive | –
27 | C=Cc1ccc(Cn2c(C(=O)O)c(CNCc3ccc(F)cc3)c3ccc(C)cc32)cc1 | inconclusive: 12.6 µM [inhibitor, partial curve, poor fit] | –
28 | COc1ccc(C(=O)NCCS(=O)(=O)NCc2ccc(C)cc2)cc1 | inactive | –
29 | CN(CC(=O)Nc1ccc(F)cc1)c1ccc(S(=O)(=O)N2CCCCC2)cc1[N+](=O)[O-] | inconclusive: 3.16 µM [inhibitor, partial curve, poor fit] | –
30 | C=CCOc1c(CNc2ccc(C(=O)O)cc2)cccc1OC | inactive | –
31 | N#CC[C@H](c1ccccc1)N1CCN(Cc2ccccc2)CCC1=O | inconclusive: 2.51 µM [inhibitor, partial curve, poor fit] | –
32 | COc1ccccc1/C=C/C(=O)Oc1cccc2cccnc12 | inconclusive: 6.31 µM [inhibitor, partial curve, poor fit] | –
33 | Cc1cc(C)cc(NC(=O)C2(c3ccccc3)CC2(Cl)Cl)c1 (stereo not drawn) | inconclusive: 28.2 µM [inhibitor, single point] | –
34 | CCCCNC1C(CC)C(CCC)C(C#N)(C#N)C1(C#N)C#N (stereo not drawn) | inconclusive: 28.2 µM [inhibitor, single point] | –
35 | CCN(CC)CCNC(=O)c1ccc(NC(=O)/C=C/c2ccc3ccccc3n2)cc1 | inconclusive: 11.2 µM [inhibitor, single point] | –
36 | CC1CCN(C(=O)COC(=O)CCCN2C(=O)c3cccc4cccc(c34)C2=O)CC1 | inactive | –
37 | CCOC(=O)C1CCN(c2ncnc3c2nc2n3CCCCC2)CC1 | inactive | –
38 | COc1cccc(NC(=O)COc2cccc3c2CCNC3=O)c1 | inactive | –
39 | CCOC(=O)C1CCCN(C(=O)CCC(=O)Nc2ccc3nc(N4CCOCC4)cc(C)c3c2)C1 (stereo not drawn) | inactive | –
40 | COc1cc2nc(NCCCN3CCN(C)CC3)n3nc(-c4ccccc4)nc3c2cc1OC | inconclusive: 28.2 µM [inhibitor, single point] | –
41 | CCC(CNc1cc(OC)cc2cccnc12)NC1CCCCC1 (stereo not drawn) | inconclusive: 11.2 µM [inhibitor, single point] | –
42 | COc1ccc(CN=C2NC(=O)CC(C(=O)Nc3ccc([N+](=O)[O-])cc3C)S2)cc1 (stereo not drawn) | inconclusive: 28.2 µM [inhibitor, single point] | –
43 | CC1(C)Cc2c(sc(NC(=O)c3ccc(C(=O)c4ccccc4)cc3)c2C(N)=O)C(C)(C)N1 | inconclusive: 8.91 µM [inhibitor, partial curve, poor fit] | –
